Data: PubChem BioAssay AID1347165 (National Center for Advancing Translational Sciences (NCATS), 2019)
Screen size: about 220,000 compounds; about 5,700 (2.6%) were called active. Inconclusive means that the source gave no clear call. Such entries were picked first, then a sample of the others. Calls follow the shape of the dose curve; as a rule, active = well fitted inhibition curve with a large enough effect; inconclusive = small, poorly fitted or top-dose-only effect; inactive = no such curve, though single readings can be large or run the other way. Potencies of inconclusive entries are doubtful fits and often do not repeat.

target: Lysine-specific demethylase 5B (Homo sapiens) (UniProt Q9UGL1); assay: Primary screen for KDM5B Histone Demethylases FDH-coupled qHTS; conditions: FDH-coupled NADH fluorescence (FDH is formaldehyde dehydrogenase); activity change, negative = inhibition: at 57.7 µM (top of the series) unless noted; also: nearly all actives have a fitted effect of over 70% in size; as to activity change, negative = inhibition: 0% is about no effect
Procedure, shortened: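 Compound dilutions met 200 nM (final) KDM5BΔAP for 10 min at room temperature before substrate addition. The substrate mix held 12.5 µM H3K4me3 with cofactors 25 µM α-ketoglutarate and 50 µM Fe²⁺. NADH signal gain over 30 min defined activity.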
Potency is read from the fitted curve at half-maximal effect; tags tell the direction and shape of the fitted curve.

Chain of UniProt Q9UGL1 (Q9UGL1 whole entry, looked up): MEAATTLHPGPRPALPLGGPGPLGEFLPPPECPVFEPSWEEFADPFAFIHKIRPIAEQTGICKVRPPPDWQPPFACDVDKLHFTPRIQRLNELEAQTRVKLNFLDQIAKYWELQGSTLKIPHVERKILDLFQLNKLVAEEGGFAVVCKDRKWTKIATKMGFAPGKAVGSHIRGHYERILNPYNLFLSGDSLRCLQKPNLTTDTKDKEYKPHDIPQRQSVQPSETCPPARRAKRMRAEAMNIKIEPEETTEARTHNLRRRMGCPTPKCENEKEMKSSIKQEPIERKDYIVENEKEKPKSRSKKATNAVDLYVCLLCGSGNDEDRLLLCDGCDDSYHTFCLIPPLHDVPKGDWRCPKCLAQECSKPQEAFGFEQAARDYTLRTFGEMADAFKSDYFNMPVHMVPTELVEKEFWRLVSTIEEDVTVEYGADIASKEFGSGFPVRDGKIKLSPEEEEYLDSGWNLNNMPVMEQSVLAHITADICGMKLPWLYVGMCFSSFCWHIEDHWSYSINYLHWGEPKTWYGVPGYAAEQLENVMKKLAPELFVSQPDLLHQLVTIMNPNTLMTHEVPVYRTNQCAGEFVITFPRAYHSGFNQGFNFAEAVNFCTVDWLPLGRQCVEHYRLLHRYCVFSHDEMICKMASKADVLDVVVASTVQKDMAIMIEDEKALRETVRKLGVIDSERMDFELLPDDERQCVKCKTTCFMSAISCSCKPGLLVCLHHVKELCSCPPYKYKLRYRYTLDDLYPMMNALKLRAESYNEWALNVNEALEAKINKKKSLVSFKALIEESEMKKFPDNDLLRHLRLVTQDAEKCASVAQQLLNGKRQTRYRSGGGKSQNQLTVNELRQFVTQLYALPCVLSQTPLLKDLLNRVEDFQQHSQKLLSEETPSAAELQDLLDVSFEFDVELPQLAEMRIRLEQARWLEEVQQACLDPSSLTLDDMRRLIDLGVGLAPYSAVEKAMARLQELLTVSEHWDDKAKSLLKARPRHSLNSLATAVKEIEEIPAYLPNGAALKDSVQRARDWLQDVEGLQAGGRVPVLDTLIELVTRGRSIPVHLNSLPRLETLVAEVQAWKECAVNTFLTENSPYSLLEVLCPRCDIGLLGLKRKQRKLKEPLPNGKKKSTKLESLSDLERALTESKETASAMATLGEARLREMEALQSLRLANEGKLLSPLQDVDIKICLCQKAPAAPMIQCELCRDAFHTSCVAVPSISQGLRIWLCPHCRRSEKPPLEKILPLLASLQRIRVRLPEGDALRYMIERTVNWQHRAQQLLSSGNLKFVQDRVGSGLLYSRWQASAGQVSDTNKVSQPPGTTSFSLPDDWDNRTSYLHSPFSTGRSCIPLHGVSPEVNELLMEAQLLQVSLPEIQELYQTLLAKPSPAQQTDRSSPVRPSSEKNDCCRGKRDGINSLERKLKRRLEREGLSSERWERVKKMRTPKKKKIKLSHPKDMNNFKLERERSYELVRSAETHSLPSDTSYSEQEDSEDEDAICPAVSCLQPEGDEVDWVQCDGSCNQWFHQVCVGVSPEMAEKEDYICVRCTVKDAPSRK

Row | SMILES | Potency | activity change, negative = inhibition
1 | CCC(=O)c1c(-c2ccccc2)nc2n(CCN3CCOCC3)c3ccccc3n12 | inconclusive: 25.1 µM [inhibitor, single point] | 
2 | Cc1cc(-c2[nH]c3ccccc3c2C=O)c(C)s1 | inconclusive: 28.2 µM [inhibitor, partial curve, poor fit] | 
3 | COc1cc(C(c2c(C)[nH][nH]c2=O)c2c(C)[nH][nH]c2=O)ccc1OCc1ccccc1Cl | inconclusive: 3.16 µM [inhibitor, full curve, poor fit] | 
4 | CC(C)(Oc1nn(Cc2cccc(Cl)c2)c2ccccc12)C(=O)NCCc1cnc[nH]1 | inactive | 
5 | COc1ccc(-c2cc(N3CCCC(NC(=O)c4ccccc4Br)C3)n[nH]2)cc1 (stereo not given) | inconclusive: 22.4 µM [inhibitor, partial curve, poor fit] | 
6 | CCc1ccc(Nc2nc3ccccc3c3nnc(C)n23)cc1 | inconclusive: 28.2 µM [inhibitor, single point] | 
7 | CS(=O)(=O)N1CCCC1C(=O)Nc1ccc(-c2cccc(F)c2)cc1 (stereo not given) | inconclusive: 39.8 µM [inhibitor, single point] | 
8 | C[C@H]1[C@@H]2[C@@H](O)[C@H]([C@H](C)C(=O)N3CCCC3)CC[C@@]2(C)CC[C@@H]1NC(=O)c1cncnc1 | inconclusive: 35.5 µM [inhibitor, single point] | 
9 | CCOc1ccccc1NC(=O)NC(CC)c1c(-n2cccc2)sc2c1CCN(C)C2 (stereo not given) | inconclusive: 17.8 µM [inhibitor, partial curve, poor fit] | 
10 | Cc1ccc(S(=O)(=O)c2cn(CC(=O)Nc3ccccc3)c3cc4c(cc3c2=O)OCO4)cc1 | inconclusive: 35.5 µM [inhibitor, single point] | 
11 | COc1ccc(C(=O)N2CCc3ccc(C(=O)NC(C)C)cc32)cc1 | inconclusive: 28.2 µM [inhibitor, partial curve, poor fit] | 
12 | COc1ccc(OC)c(CN2CCCn3nc(C)c(-c4ccccc4OCc4ccccc4)c32)c1 | active: 28.2 µM | 
13 | CC(C)CCN1CCC2(CC1)CC(=O)c1ccc(Cl)cc1O2 | inconclusive: 39.8 µM [inhibitor, partial curve, poor fit] | 
14 | CC(C)CCN1CCCC2(CN[S+](=O)([O-])c3ccccc3N2)C1 (stereo not given) | inconclusive: 14.1 µM [inhibitor, partial curve, poor fit] | 
15 | NCC1Cn2cccc2CN1Cc1ccccc1 (stereo not given) | active: 15.8 µM | 
16 | CNC(=S)NNC(=O)c1csc(C)c1C | inactive | 
17 | O=C(NCc1cccnc1)N1CCN(S(=O)(=O)c2cc(Cl)ccc2Cl)CC1 | inactive | 
18 | CNC(=O)NC(=O)CSc1ncnc2ccccc12 | inactive | 
19 | CCn1c2c(c(=O)n3ncc(C(=O)Nc4ccc(F)c(Cl)c4)c13)CN(Cc1ccc(OC)cc1)CC2 | inconclusive: 31.6 µM [inhibitor, partial curve, poor fit] | 
20 | CCN1CCN(c2ncc3c(n2)CCN(Cc2ccc(C)s2)C3)CC1 | inconclusive: 39.8 µM [inhibitor, single point] | 
21 | O=C(c1cccnc1)N1CCC2(CC1)C(=NC1CCCC1)NC(=O)N2c1cc(F)cc(F)c1 | inactive | 
22 | Cc1nc(CN2C(=O)COc3ccc(S(=O)(=O)NC4CCCCCCC4)cc32)no1 | inactive | 

Row | SMILES | Potency | activity change, negative = inhibition
23 | COc1cc(OC)cc(C(=O)N[C@@H]2CN(C)C[C@H]2CN(C)C)c1 | inconclusive: 39.8 µM [inhibitor, partial curve, poor fit] | 
24 | Cc1cccc(CCNC(=O)c2nc(-c3ccc(Cl)cc3)n3c2CCCCC3)c1 | inconclusive: 35.5 µM [inhibitor, single point] | 
25 | CN1CCc2c(sc3c2C(=O)NC(c2ccc(-c4ccc(Cl)cc4)o2)N3)C1 (stereo not given) | inconclusive: 31.6 µM [inhibitor, partial curve, poor fit] | 
26 | O=C(NCC1Cn2cccc2C(=O)N1Cc1ccccc1)c1cccc2nccnc12 (stereo not given) | inactive | 
27 | COc1ccccc1N1CCN(C(=O)c2cc3c(=O)n(Cc4cccnc4)ccc3nc2C)CC1 | inconclusive: 39.8 µM [inhibitor, single point] | 
28 | Cc1cc(N2CCC(NCc3cc(C)nn3C)CC2)nc(-c2ccccc2)n1 | inactive | 
29 | CC1=C(C(=O)OC(C)(C)C)C(c2ccccc2)N2C(CC(=O)NCc3ccco3)=CSC2=N1 (stereo not given) | inconclusive: 15.8 µM [inhibitor, partial curve, poor fit] | 
30 | COCc1ccc2c(c1)c(OC(C)(C)C(=O)Nc1cc(C)nn1C)nn2CCC(C)C | inconclusive: 35.5 µM [inhibitor, single point] | 
31 | CCC1Oc2ccccc2N(CC(=O)NCc2ccc(C)cc2)C1=O (stereo not given) | inconclusive: 15.8 µM [inhibitor, partial curve, poor fit] | 
32 | COc1ccc(C(=O)N2CCC3(CC2)N=C(c2ccc(Br)cc2)NO3)cc1 | inconclusive: 22.4 µM [inhibitor, single point] | 
33 | Cc1ccc(Cl)cc1N1CCN(C(=O)c2cn(C)c3ccc(S(=O)(=O)N4CCCC4)cc3c2=O)CC1 |  | inconclusive: -101% [inhibitor] [at 11.5 µM]
34 | CN(C)c1ncnc2sc3c(c12)CCN(Cc1ccccc1)C3 | inconclusive: 31.6 µM [inhibitor, partial curve, poor fit] | 
35 | COC(=O)c1ccc2c(c1)nc1n2[C@@H](CNCc2ccncc2)COC1 | inconclusive: 56.2 µM [inhibitor, partial curve, poor fit] | 
36 | CC(=O)c1c(C)n[nH]c1C | inactive | 
37 | COc1ccccc1CCC(=O)N[C@@H]1CN(c2ncccn2)C[C@H]1CN(C)C | active: 31.6 µM | 
38 | CN1CC(=O)N(C2CCNCC2)Cc2c(NCC3CCCCC3)ncnc21 | inconclusive: 56.2 µM [inhibitor, partial curve, poor fit] | 
39 | CSCCCN1CCC(Oc2ccc3ncccc3c2)(C(=O)O)CC1 | inconclusive: 15.8 µM [inhibitor, partial curve] | 
40 | Cc1ccc(C(=O)NCCCn2ccnc2)cc1C | inactive | 
41 | O=C(NNC(=O)C1CCCCC1)c1ccc(Cl)cc1 | inactive | 
42 | O=C(COc1ccc(F)cc1)N1CCC(c2nc(CCOCC3CC3)no2)C1 (stereo not given) | inactive | 
43 | COc1ccccc1-c1nc2nccc(-c3ccc4c(c3)OCCCO4)n2n1 | active: 14.1 µM | 
44 | CS(=O)(=O)N[C@H]1C[C@H]2C(=O)Nc3ccc(-c4cccc(C(F)(F)F)c4)cc3C(=O)N2C1 | inactive | 

Row | SMILES | Potency | activity change, negative = inhibition
45 | COC(=O)c1c(-c2cccs2)csc1NC(=O)COc1ccc(C(C)C)cc1 | inconclusive: 3.55 µM [inhibitor, full curve, poor fit] | 
46 | O=C(Nc1ccc(Cl)cc1C(F)(F)F)c1cc(S(=O)(=O)NCc2ccccc2)ccc1F | inconclusive: 25.1 µM [inhibitor, partial curve, poor fit] | 
47 | COc1cccc(-c2noc(-c3ccc(NCCCSC)nc3)n2)c1OC | active: 28.2 µM | 
48 | CCCn1nnnc1CN1CCCC1c1ccc(OC)c(OC)c1 (stereo not given) | inactive | 
49 | O=C1c2cnc(-c3cc4ccccc4o3)nc2OCCN1c1ccccc1 | active: 22.4 µM | 
50 | O=C(Nc1cccc(Br)c1)N1CCC(n2cnnc2C2CC2)C1 (stereo not given) | inactive | 
51 | CCOc1cccc(-c2nc(C(=O)NCCc3ccccc3OC)cs2)c1 | inconclusive: 17.8 µM [inhibitor, partial curve] | 
52 | Cc1ncoc1C(=O)N1CCC(N2CC(OCC3CC3)C23CCOCC3)CC1 (stereo not given) | inconclusive: 12.6 µM [inhibitor, partial curve] | 
53 | CN1CC2(CCN(C(=O)NC(C)(C)C)CC2)CC1C(=O)N1CCOCC1 (stereo not given) | inactive | 
54 | CCOC(=O)C1CCC(CN(Cc2ccc(OC)cc2)S(=O)(=O)c2ccc(F)c(C(=O)Nc3cc(Cl)ccc3OC)c2)CC1 (stereo not given) | inconclusive: 2.51 µM [inhibitor, full curve, poor fit] | 
55 | COc1cc([C@@H]2CC(=O)C3=C(C2)Nc2[nH][nH]c(=O)c2[C@H]3c2ccc(N(C)C)cc2)cc(OC)c1OC | inconclusive: 14.1 µM [inhibitor, partial curve, poor fit] | 
56 | COc1ccc(CNC(=O)CN(C)S(=O)(=O)c2ccc3[nH]c4c(c3c2)CCCC4)cc1 | inconclusive: 28.2 µM [inhibitor, partial curve, poor fit] | 
57 | Cn1cc(-c2cc3n(n2)CCC(=O)N3CCCC(=O)NCc2ccccc2)c2ccccc21 | inconclusive: 11.2 µM [inhibitor, partial curve, poor fit] | 
58 | S=C1NC2=C(CCC/C2=C\c2ccc(Cl)cc2)C(c2ccc(Cl)cc2)N1 (stereo not given) | inconclusive: 17.8 µM [inhibitor, partial curve, poor fit] | 
59 | CN(Cc1ccccc1)C(=O)C[C@@H]1CCNC[C@@H]1Cc1cc(-c2ccccc2)on1 | inactive | 
60 | COc1ccc(CNc2cc3c(cn2)CN(C)CCN3)cc1OC | inconclusive: 31.6 µM [inhibitor, partial curve, poor fit] | 
61 | CN1C[C@@H](N)C[C@H]1c1nc(-c2ccc3c(c2)OCO3)no1 | inconclusive: 35.5 µM [inhibitor, partial curve, poor fit] | 
62 | COC(=O)CSc1[nH]c2ccc(F)cc2c1[N+](=O)[O-] | inconclusive: 39.8 µM [inhibitor, single point] | 
63 | Cc1cn2c(=O)c(S(=O)(=O)NCCc3ccc(Cl)cc3)c(C)nc2s1 |  | inconclusive: -33.9% [inhibitor]
64 | O=c1[nH]c2ccccc2c(-c2ccccc2)c1Sc1nc2ccccc2s1 | inconclusive: 39.8 µM [inhibitor, single point] | 
65 | O=C(N/N=C/c1cccc2ccccc12)c1cc2ccccc2o1 | inconclusive: 17.8 µM [inhibitor, single point] | 
